About 60 (0.1%) of roughly 46,000 compounds were called active. Not shown: some 3% with an inconclusive outcome. Calls follow the shape of the dose curve; as a rule, active = well fitted inhibition curve with a large enough effect; inconclusive = small, poorly fitted or top-dose-only effect; inactive = no such curve, though single readings can be large or run the other way. The list shows a part of the results.
Assay: Primary qHTS assay for Inhibitors of ovarian cancer metastasis using an organotypic tumor microenvironment (TME) model. Also: nearly all actives have a fitted effect of over 65% in size.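 As to activity change, negative = inhibition: plate controls were DMSO wells for no effect and tomatine positive control wells for full effect.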
Details: SKOV3ip1-GFP adhesion/invasion on 3D omental model, fluorescence; series mostly up to 45.8 µM; activity change, negative = inhibition: at the top concentration
Procedure, shortened: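 qHTS, 4-pt dose (0.36-46 umol/L); SKOV3ip1-GFP, 1,200 cells/well, no FBS; primary omental fibroblast/mesothelial co-culture 48 h pre-grown; 2 h RT + 16 h 37 C; PBS wash, 4% PFA; GFP count 488/509 nm.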

SMILES | activity change, negative = inhibition | outcome
CCc1cc(C(=O)NCc2ccccc2)no1 | inactive: 15.8% | 
O=C(NCc1ccccc1)C(=O)Nc1ccc2nc3n(c(=O)c2c1)CCCCC3 | inactive: 2.11% | 
COc1ccccc1NC(=O)CN1C(=O)C2(SCC(=O)N2c2ccc(F)c(F)c2)c2ccccc21 (stereo not drawn) |  | inactive
Cc1nnc(NC(=O)c2nc(SCc3ccccc3F)ncc2Cl)s1 | inactive: 0.94% | 
CCCOc1ccc(C(=O)Nc2ccc(NC(=O)c3ccccc3)c(Br)c2)cc1 |  | inactive
CC(NC(=O)Cc1ccc(NC(=O)N2CCSc3ncccc32)cc1)c1ccccc1 (stereo not drawn) | inactive: 10.7% | 
Cc1cc(-c2ccc(S(=O)(=O)Nc3ccccc3F)s2)on1 | inactive: -8.73% | 
Cc1ccc2c(c1)N(CC(=O)NCCc1ccc(Cl)cc1)C(=O)c1cccnc1O2 |  | inactive
Cn1c(-n2cccc2)c(-c2c(-c3ccccc3)[nH]c3c2c(=O)[nH]c(=O)n3C)c(=O)[nH]c1=O | inactive: 3.62% | 
CC(=O)Nc1ccc(NC(=O)CSc2nc3ccccc3nc2N2CCCCC2)cc1 | inactive: -5.02% | 
Cc1ccc(C)c(NC(=O)Cn2c(=O)n(CC3CCCO3)c(=O)c3ccccc32)c1 (stereo not drawn) |  | inactive
COc1ccc(C(=O)Nc2cc(C)c(O)c(-c3nc4ccccc4s3)c2)cc1OC | inactive: 45.6% | 
O=C(Nc1cccc(-c2cn3cccnc3n2)c1)c1cc(Br)ccc1Cl | inactive: 3.62% | 
CCOC(=O)c1[nH]c(C)c(C(=O)NC(CC)Cc2ccccc2)c1C (stereo not drawn) | inactive: -6.17% | 
O=C(CN1C(=O)COc2ccc(S(=O)(=O)NC3CCCC3)cc21)Nc1ccc(Cl)cc1 |  | inactive
CCN(Cc1ccccc1)C(=O)CN1C(=O)COc2ccc(S(=O)(=O)NC3CCCC3)cc21 | inactive: 1.62% | 
CCOc1ccc(CNC(=O)c2ccc(CS(=O)Cc3ccc(Cl)cc3)o2)cc1 (stereo not drawn) | inactive: 11.5% | 
CCOC(=O)CSc1nc2sc3c(c2c(=O)n1-c1ccccc1)CC(C(C)C)OC3 (stereo not drawn) | inactive: 0.0934% | 
Cc1oc(=O)oc1CN1CCN(c2cc3c(cc2F)c(=O)c(C(=O)O)c2n3C(C)S2)CC1 (stereo not drawn) | inactive: -11.2% | 
Cc1ccc(-c2nnn3c2nc(NCC(C)c2ccccc2)c2ccccc23)cc1 (stereo not drawn) |  | inactive
COc1cccc(CNC(=O)c2ccc3c(c2)nc2n3CCOC2)c1 | inactive: -3.06% | 
CCCCn1cc(S(=O)(=O)c2cccc(C)c2)c(=O)c2cc(F)c(N3CCOCC3)cc21 |  | inactive
O=C(NCCc1ccccc1)c1ccc(CSc2nc3ccncc3n2Cc2ccc(F)cc2)cc1 | inactive: 0.261% | 
CN(C)CCn1c2c(c(SCC(=O)Nc3ccc(F)cc3F)nc1=O)CCC2 |  | inactive

SMILES | activity change, negative = inhibition | outcome
COc1cccc(CNCCSc2nnnn2C)c1OCc1ccccc1F |  | inactive
CCc1ccc2oc(C(=O)Nc3sc4c(c3C(=O)NC)CCCC4)cc(=O)c2c1 | inactive: 1.94% | 
O=C(Nc1ccc(Cl)cc1F)c1cc(S(=O)(=O)NCc2ccc3c(c2)OCO3)ccc1F | inactive: -7.83% | 
CCCCOC(=O)c1cccc(NC(=O)c2cc3ccccc3o2)c1 | inactive: -25.1% | 
CCOc1ccc(C(=O)Nc2cccc(OCc3cc(=O)n4cc(C)sc4n3)c2)cc1 | inactive: 4.31% | 
O=[N+]([O-])c1ccc(C(c2sc3nc(-c4ccco4)nn3c2O)N2CCN(c3cccc(Cl)c3)CC2)cc1 (stereo not drawn) | inactive: 0.737% | 
CCOC(=O)c1cc2c(=O)n3ccccc3nc2n(CC2CCCO2)c1=NC(=O)c1ccc(C)cc1 (stereo not drawn) | inactive: -9.4% | 
COc1ccc(-c2nc3ccccc3o2)cc1NC(=O)COc1ccc(C(C)(C)C)cc1 | inactive: -5.06% | 
COc1cccc(N2CC(NC(=O)c3ccc(S(=O)(=O)N4CCCCC4)cc3)CC2=O)c1 (stereo not drawn) | inactive: 0.851% | 
CCOc1ccc(S(=O)(=O)NCC(c2ccco2)S(=O)(=O)c2ccc(F)cc2)cc1 (stereo not drawn) | inactive: 1.48% | 
Cc1ccccc1OC(=O)CSc1nnc(-c2cccs2)o1 | inactive: 3.05% | 
CCOC(=O)c1c(S(=O)(=O)N2CCCC(C(=O)N3CCN(c4ccccc4)CC3)C2)c(C)n(C)c1C (stereo not drawn) |  | inactive
Cc1ccc(C)c(Cn2nc(-c3cc(C)ccc3C)ccc2=O)c1 |  | inactive
CC(Oc1ccccc1Cl)C(=O)N1CCN(CCc2ccccn2)CC1 (stereo not drawn) | inactive: -15.3% | 
COc1cc(NC(=O)c2cc3c(=O)n(Cc4cccs4)ccc3nc2C)cc(OC)c1OC | inactive: 1.42% | 
O=c1cc(CSc2n[nH]c(-c3ccccc3)n2)[nH]c2ccccc12 | inactive: -4.03% | 
COc1ccccc1NC(=O)CSc1oc(-c2cccs2)nc1S(=O)(=O)c1ccccc1 | inactive: 2.69% | 
Cc1ccc(CN2C(=O)C3(c4ccccc42)N(c2cccc(C(F)(F)F)c2)C(=O)CS3(=O)=O)cc1 (stereo not drawn) | inactive: -7.77% | 
Cc1nnc(NCc2ccccc2)c2c1nnn2Cc1ccc(F)cc1 | inactive: 1.9% | 
N=C(N=C(N)N)N1CCOCC1 | inactive: -2.53% | 
CCc1cccc(NC(=O)Cn2nc(-c3cc(C)ccc3C)ccc2=O)c1 | inactive: -4.1% | 
O=C(NC1CCCCC1)c1ccc2c(c1)N(Cc1ccc(Cl)cc1)C(=O)c1ccccc1S2(=O)=O | inactive: 7.07% | 
COc1ccc(OC)c(NC(=O)CN2C(=O)CCc3cc(S(=O)(=O)N4CCCCC4)ccc32)c1 |  | inactive
CC(Sc1nc(=O)cc(N)n1CCc1ccccc1)C(=O)Nc1ccccc1C#N (stereo not drawn) | inactive: 7.28% | 

Source: PubChem BioAssay AID1963576 (National Center for Advancing Translational Sciences (NCATS), 2024)
